Experimental data published in paper PMC4336329 (PLoS ONE, 2015).
The campaign covered roughly 310,000 compounds. About 2,200 (0.71%) showed an effect of 50% or more. Effects have a minus sign here. Some of the results follow.

Molecular target: human ether-à-go-go-related gene (hERG) potassium channel (human, UniProt Q12809)
Assay: primary screen, population patch clamp on CHO cells stably expressing hERG

human ether-à-go-go-related gene (hERG) potassium channel, sequence (Q12809 whole entry, looked up): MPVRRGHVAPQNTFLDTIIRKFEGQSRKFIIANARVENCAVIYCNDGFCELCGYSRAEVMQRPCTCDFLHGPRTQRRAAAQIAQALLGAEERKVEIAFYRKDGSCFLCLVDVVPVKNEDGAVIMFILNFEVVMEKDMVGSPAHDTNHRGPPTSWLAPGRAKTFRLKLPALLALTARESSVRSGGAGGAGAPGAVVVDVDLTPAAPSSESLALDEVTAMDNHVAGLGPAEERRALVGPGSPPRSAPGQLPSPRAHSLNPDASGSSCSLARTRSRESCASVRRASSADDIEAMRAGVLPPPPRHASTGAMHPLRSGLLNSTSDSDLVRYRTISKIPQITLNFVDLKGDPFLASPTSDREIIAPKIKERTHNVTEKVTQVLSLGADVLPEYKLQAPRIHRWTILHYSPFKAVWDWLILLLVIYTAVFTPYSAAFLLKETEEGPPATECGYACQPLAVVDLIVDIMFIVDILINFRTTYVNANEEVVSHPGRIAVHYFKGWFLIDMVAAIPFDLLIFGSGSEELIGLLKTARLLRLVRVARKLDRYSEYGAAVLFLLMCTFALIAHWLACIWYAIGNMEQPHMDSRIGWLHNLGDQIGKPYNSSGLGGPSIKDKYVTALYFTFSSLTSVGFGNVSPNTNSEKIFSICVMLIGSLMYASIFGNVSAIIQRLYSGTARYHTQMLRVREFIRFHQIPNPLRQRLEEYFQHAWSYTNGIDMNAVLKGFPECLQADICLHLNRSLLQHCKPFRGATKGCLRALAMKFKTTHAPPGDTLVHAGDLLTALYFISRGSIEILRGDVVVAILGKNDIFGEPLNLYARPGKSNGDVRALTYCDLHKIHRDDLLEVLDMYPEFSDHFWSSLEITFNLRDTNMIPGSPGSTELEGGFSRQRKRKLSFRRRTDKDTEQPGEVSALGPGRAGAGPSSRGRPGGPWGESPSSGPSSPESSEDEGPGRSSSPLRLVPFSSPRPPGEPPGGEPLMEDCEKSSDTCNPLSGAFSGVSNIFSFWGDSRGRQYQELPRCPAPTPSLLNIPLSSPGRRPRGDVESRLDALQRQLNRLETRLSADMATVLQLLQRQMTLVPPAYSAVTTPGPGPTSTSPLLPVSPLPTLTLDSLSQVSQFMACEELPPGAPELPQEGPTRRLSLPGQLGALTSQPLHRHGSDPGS

SMILES	hERG current change (%, negative = inhibition) at 1uM
Cc1ccc(C(=O)OCC(=O)NC2CCCCC2)o1	7.25%
C#CCNC(=O)C1=C[C@H](c2coc3ccccc3c2=O)C[C@H](OCc2ccc(CO)cc2)O1	-20.9%
N/C(Cn1cncn1)=N\NC(=O)C(=O)Nc1ccc(Cl)cc1Cl	11%
C[C@@H]1C=C(C(=O)NCc2ccccc2)O[C@H](OCc2ccc(CO)cc2)C1	17.8%
Nc1ccc(-c2cnc3ccccc3n2)cc1	18.3%
O=C(CSCC(=O)N1CCOCC1)Nc1nc(-c2ccccc2)cs1	7.35%
Cl.c1cncc(CNCc2ccco2)c1	12.4%
O=C(Nc1nnc(COc2ccc(Cl)cc2)s1)c1cccs1	-10.9%
CC(C)(C)c1cc(S(=O)(=O)CCc2ccncc2)cc(C(C)(C)C)c1F	14.1%
CCCCNc1nnc(CCn2nc(C)c(Br)c2C)s1	0.787%
CC[C@@H](CO)C1CC2NC3CC4(c5ccccc5N(C)[C@@H]24)C(O)C31 (stereo partly drawn)	0.425%
Fc1ccccc1CNCCc1ccc2c(c1)OCO2	8.75%
CCC(CC)C(=O)Nc1c2cnn(-c3ccccc3)c2nc(=O)n1-c1ccccc1	-4.94%
O=C(CSc1nc2ccc(Cl)cc2[nH]1)NCc1ccco1	-8.29%
CCOC(=O)CSc1ncc(-c2ccc([N+](=O)[O-])cc2)[nH]1	-23.4%
Cc1cccn2c(=O)nc(SCC(=O)NCc3ccc4c(c3)OCO4)nc12	-1.11%
O=C(COC(=O)/C=C/c1cccc(C(F)(F)F)c1)NCc1cccs1	2.97%
CCOC(=O)c1[nH]c(C)c(C(=O)OCCN2C(=O)c3ccccc3C2=O)c1C	5.44%
COc1cc2c(cc1OC)C(C(=O)Nc1cc(OC)c(OC)c(OC)c1)C(c1cccnc1)N(C)C2=O (stereo not drawn)	1.6%
CCOC(=O)C1=C(C)N=c2s/c(=C/c3ccc(OCC(=O)O)cc3)c(=O)n2C1c1ccc(OC)cc1OC (stereo not drawn)	20.5%
Cc1ccc2cccc(S(=O)(=O)Nc3c(C)n(C)n(-c4ccccc4)c3=O)c2n1	4.83%
Cc1ccc(S(=O)(=O)N/N=C\c2cc([N+](=O)[O-])ccc2Cl)cc1	16.5%
CCc1ccc(NC(=O)C(=O)NNC(=O)c2cccc(OC)c2)cc1	7.93%

SMILES	hERG current change (%, negative = inhibition) at 1uM
CCN(CC)c1ccc(/C=C(\C#N)C(=O)c2ccc(Br)cc2)cc1	10.6%
O=C(Nc1ccsc1C(=O)N1CCCC1)c1ccccc1	11.5%
c1ccc(-n2ncc3c(N4CCC5(CC4)OCCO5)ncnc32)cc1	11%
N#Cc1c(N)n(CCNC(=O)c2ccccc2)c2nc3ccccc3nc12	22%
Cc1ccc(OCC(=O)Nc2ccc3c(c2)nc(CCN2CCN(C)CC2)n3C)cc1	-5.14%
N#Cc1c(N)nc2c(c1-c1cccc(O)c1)CCCCCC2	1.64%
Cc1ccc(C(=O)Nc2cccc3ccccc23)cc1	16.9%
COc1cc(OC)c(N(C)S(=O)(=O)c2cccc(C(=O)Nc3nnc(C4CC4)s3)c2)cc1Cl	2.85%
O=C(N/N=C/C=C\c1cccc([N+](=O)[O-])c1)c1cccnc1	4.51%
O=C(CSc1nnc(-c2cccnc2)n1Cc1ccco1)c1ccc2ccccc2c1	-11.8%
O=c1c2cc(Cl)ccc2[nH]c(=S)n1Cc1cccs1	5.16%
CCOC(=O)c1nn(-c2cccc(Cl)c2)c2nc(CC(C)C)c(C#N)c(=O)n12	4.55%
CSc1nnc(NC(=O)c2ccc3c(c2)OCO3)s1	11.3%
CCOC(=O)C(NC(C)=O)(Nc1ccc(S(=O)(=O)Nc2cc(C)on2)cc1)C(F)(F)F (stereo not drawn)	8.76%
Cc1ccc(COC(=O)c2cc(S(=O)(=O)N3CCCCC3)ccc2N2CCOCC2)cc1	-1.22%
CCn1c(CSc2nnc(-c3ccoc3C)n2C)nc2cc(S(=O)(=O)N(C)C)ccc21	10.6%
CC(=O)c1cc(F)c(N2CCN(C(=O)c3ccco3)CC2)cc1C	1.87%
O=C(Nc1ccc(Br)cc1Br)C1CC(=O)N(Cc2ccccc2)C1 (stereo not drawn)	8.64%
COc1ccc2c(c1)c(=O)oc1c(C)c(OCC(=O)N3CCc4ccccc4C3)ccc12	11.4%
O=C(NC(=S)NCCN1CCOCC1)c1ccc(Cl)cc1	-0.0515%
O=C(CNC(=O)c1ccco1)Nc1ccc(N2CCCCCC2)cc1	11.8%
O=C(OCc1nnn(Cc2ccccc2)c1-c1c(COC(=O)c2ccccc2)nnn1Cc1ccccc1)c1ccccc1	9.98%
